Some of the results follow. The full chains were built here from the parent and the listed change. Inactive controls read about 0.05.
B1: TEV protease; numbered along this chain (parent)
chain: MGESLFKGPRDYNPISSSICHLTNESDGHTTSLYGIGFGPFIITNKHLFRRNNGTLVVQSLHGVFKVKDTTTLQQHLVDGRDMIIIRMPKDFPPFPQKLKFREPQREERICLVTTNFQTKSMSSMVSDTSCTFPSGDGIFWKHWIQTKDGQCGSPLVSTRDGFIVGIHSASNFTNTNNYFTSVPKNFMELLTNQEAQQWVSGWRLNADSVLWGGHKVFMVKPEEPFQPVKEATQL

Variants of: B1
Assay: raw area under fraction-flipped curve 0-4 h after induction (AUC4h, not background-subtracted), DNA-recorder readout of cleavage of the substrate (dimensionless); higher = more cleavage of the substrate by the protease variant
Details: temperature: 34 °C; time window: 0-4 h after rhamnose induction
Description: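 In vivo DNA recorder in E. coli TOP10(DE3) ΔrhaA at 34 °C. Each TEVp single-site mutant (parent TEVp 0) is paired with a single-site variant of the 7-mer TEVs (canonical ENLYFQ|S). The substrate sits between flexible linkers in a Bxb1-sfGFP-TEVs-SsrA fusion, so cleavage stabilises Bxb1 and speeds flipping of a recombination array, read by NGS. The value is the raw area under the fraction-flipped curve over 0-4 h after rhamnose induction (AUC4h), with ≥20 reads per time point. It is not background-subtracted; inactive controls average about 0.047.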
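Further: Bxb1 expression induced with 0.2% (w/v) L-rhamnose at OD600 near 0.5, cultures sampled hourly, flipped fraction per protease–substrate barcode pair counted by paired-end Illumina sequencing.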

## C20V
  area with substrate ENLYFAS: 0.0592
  area with substrate ENLYFCS: 0.0565
  area with substrate ENLYFES: 0.0656
  area with substrate ENLYFFS: 0.0691
  area with substrate ENLYFGS: 0.0655
  area with substrate ENLYFHS: 0.0599
  area with substrate ENLYFIS: 0.0567
  area with substrate ENLYFKS: 0.0703
  area with substrate ENLYFLS: 0.0567
  area with substrate ENLYFMS: 0.0651
  area with substrate ENLYFNS: 0.0594
  area with substrate ENLYFPS: 0.0528
  area with substrate ENLYFRS: 0.0626
  area with substrate ENLYFSS: 0.035
  area with substrate ENLYFTS: 0.0632
  area with substrate ENLYFVS: 0.0633
  area with substrate ENLYFWS: 0.0601
  area with substrate ENLYFYS: 0.063

## C20G
  area with substrate ENLYFAS: 0.0366
  area with substrate ENLYFHS: 0.0492
  area with substrate ENLYFPS: 0.0641
  area with substrate ENLYFVS: 0.0228

## C20S
  area with substrate ENLYFAS: 0.0682
  area with substrate ENLYFCS: 0.0649
  area with substrate ENLYFES: 0.0613
  area with substrate ENLYFFS: 0.062
  area with substrate ENLYFHS: 0.0577
  area with substrate ENLYFIS: 0.0552
  area with substrate ENLYFKS: 0.0499
  area with substrate ENLYFMS: 0.0479
  area with substrate ENLYFNS: 0.0532
  area with substrate ENLYFPS: 0.0327
  area with substrate ENLYFRS: 0.048
  area with substrate ENLYFSS: 0.0467
  area with substrate ENLYFTS: 0.0493
  area with substrate ENLYFWS: 0.0565
  area with substrate ENLYFYS: 0.0574

## C20H
  area with substrate ENLYFAS: 0.0437
  area with substrate ENLYFCS: 0.0395
  area with substrate ENLYFHS: 0.0458
  area with substrate ENLYFIS: 0.0379
  area with substrate ENLYFKS: 0.0473
  area with substrate ENLYFLS: 0.0467
  area with substrate ENLYFMS: 0.037
  area with substrate ENLYFNS: 0.0469
  area with substrate ENLYFPS: 0.0265
  area with substrate ENLYFRS: 0.0328
  area with substrate ENLYFSS: 0.0435
  area with substrate ENLYFTS: 0.0507
  area with substrate ENLYFVS: 0.0348
  area with substrate ENLYFWS: 0.0459
  area with substrate ENLYFYS: 0.029

## C20D
  area with substrate ENLYFAS: 0.0182
  area with substrate ENLYFCS: 0.0473
  area with substrate ENLYFDS: 0.0168
  area with substrate ENLYFES: 0.0364
  area with substrate ENLYFFS: 0.0531
  area with substrate ENLYFGS: 0.0395
  area with substrate ENLYFHS: 0.031
  area with substrate ENLYFIS: 0.0407
  area with substrate ENLYFKS: 0.046
  area with substrate ENLYFMS: 0.0444
  area with substrate ENLYFNS: 0.0448
  area with substrate ENLYFPS: 0.0467
  area with substrate ENLYFRS: 0.0486
  area with substrate ENLYFSS: 0.034
  area with substrate ENLYFTS: 0.0322
  area with substrate ENLYFVS: 0.0399
  area with substrate ENLYFWS: 0.0306
  area with substrate ENLYFYS: 0.0425

## C20T
  area with substrate ENLYFAS: 0.0527
  area with substrate ENLYFCS: 0.0584
  area with substrate ENLYFDS: 0.0512
  area with substrate ENLYFES: 0.0519
  area with substrate ENLYFFS: 0.059
  area with substrate ENLYFGS: 0.0479
  area with substrate ENLYFHS: 0.0659
  area with substrate ENLYFIS: 0.0549
  area with substrate ENLYFKS: 0.0562
  area with substrate ENLYFLS: 0.0678
  area with substrate ENLYFMS: 0.0641
  area with substrate ENLYFNS: 0.0648
  area with substrate ENLYFPS: 0.058
  area with substrate ENLYFRS: 0.0598
  area with substrate ENLYFTS: 0.0651
  area with substrate ENLYFWS: 0.0549
  area with substrate ENLYFYS: 0.0568

## Y34G
  area with substrate ENLYFAS: 0.0479
  area with substrate ENLYFCS: 0.0995
  area with substrate ENLYFDS: 0.0526
  area with substrate ENLYFES: 0.0624
  area with substrate ENLYFFS: 0.0394
  area with substrate ENLYFIS: 0.0799
  area with substrate ENLYFMS: 0.0515
  area with substrate ENLYFNS: 0.0675
  area with substrate ENLYFPS: 0.0523
  area with substrate ENLYFRS: 0.0489
  area with substrate ENLYFTS: 0.0647
  area with substrate ENLYFVS: 0.031
  area with substrate ENLYFYS: 0.062

## Y34I
  area with substrate ENLYFAS: 0.0525
  area with substrate ENLYFES: 0.0653
  area with substrate ENLYFIS: 0.0576
  area with substrate ENLYFKS: 0.0643
  area with substrate ENLYFMS: 0.0632
  area with substrate ENLYFPS: 0.0646
  area with substrate ENLYFRS: 0.0713
  area with substrate ENLYFVS: 0.0626
  area with substrate ENLYFWS: 0.0472

## E25Q
  area with substrate ENLYFAS: 0.0597
  area with substrate ENLYFCS: 0.0616
  area with substrate ENLYFES: 0.0558
  area with substrate ENLYFFS: 0.0803
  area with substrate ENLYFHS: 0.0576
  area with substrate ENLYFIS: 0.0624
  area with substrate ENLYFKS: 0.0604
  area with substrate ENLYFLS: 0.0577
  area with substrate ENLYFMS: 0.0601
  area with substrate ENLYFNS: 0.0616
  area with substrate ENLYFPS: 0.0525
  area with substrate ENLYFRS: 0.0599
  area with substrate ENLYFSS: 0.0483
  area with substrate ENLYFTS: 0.0591
  area with substrate ENLYFVS: 0.0617
  area with substrate ENLYFYS: 0.0629

## E25T
  area with substrate ENLYFAS: 0.0676
  area with substrate ENLYFCS: 0.0461
  area with substrate ENLYFDS: 0.0563
  area with substrate ENLYFES: 0.0477
  area with substrate ENLYFIS: 0.0546
  area with substrate ENLYFKS: 0.0616
  area with substrate ENLYFMS: 0.0712
  area with substrate ENLYFNS: 0.0644
  area with substrate ENLYFPS: 0.0593
  area with substrate ENLYFSS: 0.0777
  area with substrate ENLYFWS: 0.0588

## N24L
  area with substrate ENLYFAS: 0.0577
  area with substrate ENLYFCS: 0.0597
  area with substrate ENLYFDS: 0.0812
  area with substrate ENLYFES: 0.0689
  area with substrate ENLYFFS: 0.0695
  area with substrate ENLYFGS: 0.0675
  area with substrate ENLYFHS: 0.0305
  area with substrate ENLYFIS: 0.0645
  area with substrate ENLYFKS: 0.0627
  area with substrate ENLYFMS: 0.0673
  area with substrate ENLYFNS: 0.0671
  area with substrate ENLYFPS: 0.0615
  area with substrate ENLYFRS: 0.0444
  area with substrate ENLYFSS: 0.0661
  area with substrate ENLYFTS: 0.0587
  area with substrate ENLYFWS: 0.0585
  area with substrate ENLYFYS: 0.0563

## I42N
  area with substrate ENLYFAS: 0.019
  area with substrate ENLYFDS: 0.0446
  area with substrate ENLYFFS: 0.0573
  area with substrate ENLYFGS: 0.0427
  area with substrate ENLYFHS: 0.0551
  area with substrate ENLYFIS: 0.0364
  area with substrate ENLYFLS: 0.0573
  area with substrate ENLYFMS: 0.0504
  area with substrate ENLYFRS: 0.0423
  area with substrate ENLYFSS: 0.0444
  area with substrate ENLYFVS: 0.0258
  area with substrate ENLYFYS: 0.0564

## L22T
  area with substrate ENLYFAS: 0.0511
  area with substrate ENLYFCS: 0.0418
  area with substrate ENLYFDS: 0.0396
  area with substrate ENLYFES: 0.0447
  area with substrate ENLYFFS: 0.0576
  area with substrate ENLYFGS: 0.0466
  area with substrate ENLYFIS: 0.0434
  area with substrate ENLYFLS: 0.0542
  area with substrate ENLYFMS: 0.0444
  area with substrate ENLYFNS: 0.046
  area with substrate ENLYFPS: 0.0473
  area with substrate ENLYFRS: 0.0614
  area with substrate ENLYFSS: 0.0517
  area with substrate ENLYFWS: 0.0386
  area with substrate ENLYFYS: 0.0416
